Reference: the supplement of paper PMC3334620
Whole data set: some 33,000 sequences, median “E-score (-0.5 to 0.5)” near -0.021, cut for the highest 2% near 0.32. The list shows a part of the results.

biological target: T1, Zap1 (UniProt P47043); test: PBM E-score (8-mer binding enrichment) (E-score (-0.5 to 0.5)); higher = stronger / more preferred TF binding; most listed sequences are background and not binding sites; details: protein concentration: 200 nM; construct: GST-full length
T1 sequence: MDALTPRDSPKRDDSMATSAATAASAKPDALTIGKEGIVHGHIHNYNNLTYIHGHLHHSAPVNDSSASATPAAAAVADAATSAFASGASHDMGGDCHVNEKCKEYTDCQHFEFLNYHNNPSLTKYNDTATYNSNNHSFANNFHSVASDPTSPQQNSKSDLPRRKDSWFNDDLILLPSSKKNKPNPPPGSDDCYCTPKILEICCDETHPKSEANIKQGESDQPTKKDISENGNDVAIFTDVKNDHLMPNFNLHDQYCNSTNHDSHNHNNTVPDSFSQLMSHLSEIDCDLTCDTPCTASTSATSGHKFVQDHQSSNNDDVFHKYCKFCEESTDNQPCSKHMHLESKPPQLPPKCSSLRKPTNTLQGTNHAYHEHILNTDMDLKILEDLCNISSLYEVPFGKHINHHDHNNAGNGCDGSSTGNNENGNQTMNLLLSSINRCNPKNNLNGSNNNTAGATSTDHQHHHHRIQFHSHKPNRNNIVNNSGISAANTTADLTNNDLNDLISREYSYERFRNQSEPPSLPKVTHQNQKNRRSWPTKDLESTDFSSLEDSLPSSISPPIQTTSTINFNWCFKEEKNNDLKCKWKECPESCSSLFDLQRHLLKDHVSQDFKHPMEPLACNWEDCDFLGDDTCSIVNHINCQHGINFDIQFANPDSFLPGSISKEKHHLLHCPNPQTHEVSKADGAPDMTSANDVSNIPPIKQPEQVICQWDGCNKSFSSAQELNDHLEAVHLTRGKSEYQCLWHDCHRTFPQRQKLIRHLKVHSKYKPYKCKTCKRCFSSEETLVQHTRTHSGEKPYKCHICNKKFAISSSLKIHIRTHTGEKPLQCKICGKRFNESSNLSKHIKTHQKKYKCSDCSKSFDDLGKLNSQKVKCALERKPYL
Procedure, shortened: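 Universal all-10-mer Agilent arrays, double-stranded by primer extension on fresh or once-stripped slides, were probed with about 100-200 nM GST-tagged yeast transcription factors made by PURExpress. Fluorescent anti-GST detected bound protein, and masliner normalised the scans. E-scores from the Universal PBM Analysis Suite were given to each ungapped eight-base word pooled with its reverse complement.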

Sequence	PBM E-score
CACAACTA	0.247
ATGGTTGA	0.0307
ACGGCCAC	0.0282
AATTCAGG	0.0483
CGCGTGGC	-0.068
CTCACAAA	0.0579
AATCAATG	0.0703
GGTGCTAA	0.00201
GTGTGAGA	-0.0418
AATCTACG	-0.128
AATGTTAG	-0.0444
CACAAGCG	-0.025
GCTCCTGA	-0.103
GAGAGAAC	-0.0702
CGCAGGGC	-0.114
ACTGGAAT	0.0754
CGGTTGCC	0.0909
TATCTTCA	0.0584
CGGAATAG	0.113
TAACAGAA	0.177
TTAGCCAA	0.0203
CGCACCCC	-0.0569
CGTAACGA	-0.081
CCGGGTAG	0.102
CGTTCGCA	-0.0203

Sequence	PBM E-score
ACTGCGGC	-0.152
GCTGGGAA	0.0508
ATCTCTCA	0.0115
TAAGTGTA	0.0581
CTCCCAGC	-0.382
CCTTTATC	0.121
TAAGGATA	-0.0281
ATTATTCA	0.199
CATTTTGA	0.137
CGACCCCG	0.283
CGCTTAAA	0.053
AGACTACG	-0.162
GAGGCTCA	-0.244
AAATATAG	0.0329
GCATACAC	-0.144
CGAGTCTC	-0.176
CGACCTAA	0.18
GTTTATAA	0.191
CAAGATTG	-0.121
CCTGCAGG	0.195
CATAGTCA	0.00578
ACCCGTGC	0.161
ATAACTAC	0.287
AGAAGAGG	0.068
CACCCCTC	0.239

Sequence	PBM E-score
ATCGGTTA	0.309
GCCACCGC	0.0231
GAAGAAAA	-0.0414
CTTTATTC	0.0612
CCCTGGCC	-0.00617
CATAGGAC	-0.0439
CAGAACGA	0.0684
AGATCGCC	-0.109
ATCCTAGC	-0.143
GGGGAAAA	-0.145
AGAAACCA	0.212
GTTCTACA	-0.0926
CGGCTGCA	-0.0688
CCCATACA	0.0957
ACCTAAAC	0.189
ATGCCTGG	-0.191
GCTACGTA	-0.002
ACTTGCAT	-0.0793
ACAGCGGG	-0.176
ATTGCAGC	-0.168
ACAGTTAG	-0.0431
AGAGTGTG	-0.0409
ACACATAG	-0.0884
GACTCGTA	-0.0232
CTTTACGC	-0.0324

Sequence	PBM E-score
CAATCCAG	-0.0505
CACTATGG	-0.16
CAAAGCGG	0.088
AGCGTCAT	0.0506
CGCAACTA	0.162
TCTGACAA	0.0265
CCGTTCCA	-0.114
AGCTATTA	-0.0963
GAGCCTAA	-0.117
ATAATTCA	0.165
GAAGGCGC	-0.32
CAAGAACC	0.307
TGCCGTAA	-0.0417
CGTTAACG	0.0895
AAAGACCG	0.133
GAAACTGA	-0.152
CCGACCTA	-0.0342
GCACTCCC	-0.211
ATCGAGAT	-0.23
CGCCTTGA	-0.0574
CGTCGCTA	-0.0625
TCGGTCAA	0.0938
GATTAAGC	-0.141
ACATAAGT	-0.0816
AAACTTCA	0.00932

Sequence	PBM E-score
CTCCCCGA	-0.0635
CAAATCTG	-0.025
AATTTAGC	0.0216
ACGCGACG	-0.0804
CACTACAA	0.141
ACGGCGAT	-0.0981
AAAGTTCT	-0.114
GGGGCACC	0.0177
ATACAATG	0.0742
AATGGGAA	-0.235
AACATGGC	-0.325
CGGTGAAA	0.0511
AAGAAGAT	0.00139
AAAGTAAA	0.0371
AGAAAGTG	-0.12
ATGAGTAA	0.042
ATTGCATC	-0.00765
CTTTTCCC	-0.111
ATCACAAC	0.191
TCTGCAAA	-0.0699
AGCGCCGA	-0.227
AGAGCCTA	-0.224
GTACATAC	-0.0078
AACACGTT	-0.244
GCAATAGA	-0.159

Sequence	PBM E-score
CTCCTTTA	-0.101
AAGAAATA	0.0992
ATGCTATA	-0.0594
GCTCCACA	-0.199
GAAAAAGC	0.116
ACGAAAAG	0.0301
CAACTGAC	-0.0851
CTAGTGAG	-0.0258
ATCTTAAG	-0.0759
CTTAACTA	0.104
CGTCTGAC	-0.0141
CAGGTGGA	-0.26
TGTAACAA	0.137
AACGCCCC	0.0639
ATCAGAAA	0.0764
ATTCTCAG	-0.0721
AATAGGGC	-0.152
ACTTTCAT	0.105
AAAGGCAT	-0.0928
CTGCGATC	-0.138
AGCTGAGC	-0.185
GGAGGCGA	-0.32
AATCCTTG	0.0209
CCTCATTA	0.257
TCGCCAAA	0.165

Sequence	PBM E-score
ATTTGCTG	0.0428
AGTTCTCG	-0.0306
CAGCGACC	0.0723
AAGTCAAC	0.0212
AATATCAC	-0.0168
ACGGCTCT	-0.205
CAATAAGA	0.101
ATCCCCGA	-0.145
ATACTTCA	-0.0599
ATCTTAAA	0.194
GAGCCCCC	-0.216
CCTTGCTA	0.105
CAAGCGGA	-0.217
AGAAGCCA	-0.0472
ATGAGGAG	-0.273
CCCGTCAC	0.0288
ATCGATGC	-0.0302
GACGATAA	0.0193
CTTAATGA	0.0983
CCGACTAG	-0.231
AAATTTAT	0.0296
AGCGGCAT	-0.0116
GCATTTCC	-0.101
GTCCAGGA	-0.0884
TTCACCAA	0.0162

Sequence	PBM E-score
AGTATCAC	0.0276
GATCTTCC	-0.101
AATCACGG	0.173
GTCGTACA	-0.0132
CCACACGG	0.116
ATGCGGAA	-0.0497
AACACTAC	0.152
CGGCACAG	-0.191
GAGATTTA	-0.085
CACTATGC	-0.106
AGAATCGC	-0.202
CCGCGAAA	0.141
ACTTAATA	0.0479
AGCCGTGC	-0.283
ACGCCAAA	-0.122
CAAAGCTA	0.018
GGATTGAC	-0.135
GATCGGAC	-0.124
AGGTGGTC	0.142
ATATGCAC	-0.00523
GTTACCCA	0.312
ATCGTTGG	0.0101
AAGTATCA	0.1
AAGATTAC	0.0483
GCGATAGA	-0.12

Sequence	PBM E-score
ACCTGAGG	0.0112
ATATAGCA	0.0209
GCTACACC	0.0249
ACACGCGG	0.102
CAAACCAA	0.114
ACATGTAG	0.0452
GCCTGGAA	-0.0664
CAACACTG	-0.0719
CGCTACCC	0.302
AAACTGCC	-0.0435
AGTACAAA	0.125
CGGCGATA	-0.0117
CGTTCAGA	-0.0764
CGATAACA	0.131
ATGATGCA	-0.0633
ATTGCATA	0.0531
AACACGAG	0.205
CCGCAGAG	-0.136
AGCTAACC	0.253
ACTGATAT	-0.0416
AAGCATGG	-0.138
ACACAAAT	0.161
CATACACG	0.0354
CTGCAGGA	0.0103
AGGCGGTA	0.0442

Sequence	PBM E-score
CAGGTAAG	-0.0717
CGAGCTCA	-0.0242
GTAAGCGA	-0.0888
CCATAAAC	0.0419
TCCGAGAA	0.0508
GAATGACA	-0.0394
AATAGCGT	0.0933
GGGTGGCA	0.0831
GGTCCCAC	0.0167
AGACGCGC	-0.155
CCAGGCGG	-0.0447
AAGAATGT	-0.0207
CGACCCGA	0.0168
AGGTCGAA	0.11
CGTCTAAC	0.059
CTAATCAA	0.152
AGGACGCC	-0.153
CACTTTAC	0.0657
ATTAAGGC	0.108
CAGCGAAA	-0.0658
ATGGGGTG	0.143
GGTTACGA	0.465
GTGGCCTA	0.0774
CCCTTTCA	0.157
GCTAATAC	-0.0374

Sequence	PBM E-score
ACATTATA	0.0124
CTCTTCCA	-0.145
CACGGGGA	-0.219
ATTACAAG	0.0699
TTGATAAA	0.26
ATAACGGG	-0.0354
GACAAGTC	-0.338
ATGAATCA	-0.00312
CCGTATCA	-0.107
ATACCGGC	4e-05
CTGTTTAA	0.159
AATCGCAA	0.15
CACATCTG	-0.164
CCTTCGTA	0.0211
CTTTCGGC	-0.115
TAAGCTAA	0.151
AGTACGGG	-0.291
GTCGCCAC	-0.179
AAGTAAAC	0.00616
AAACAAAG	0.146
ATGGATAC	0.0885
TCTGGTAA	0.28
GTACCGAC	-0.0413
AGAACTCT	-0.0113
CGATAGTC	-0.0762

Sequence	PBM E-score
TCATTTAA	0.0585
CGTGGCAA	-0.175
CCACACCA	0.15
AGGCACCG	-0.0707
GAGAGGCA	-0.218
ATCGGCTA	-0.00607
TATAACGA	0.043
CCCACCTA	0.0262
ACTAAACC	0.0816
ACGAGTGC	-0.28
CCGTTGAA	0.0375
CAGAATCC	-0.0142
CGCCACCA	-0.204
ATGGTTAC	0.471
GCGTAACC	0.446
CATATAGC	-0.0322
AAGGGCAG	-0.293
ACAGTAAA	0.00478
GGATTGGA	-0.19
CGACTTAC	-0.22
GGCAATTA	-0.0276
GAGTGACC	0.239
AGTGCTCC	-0.176
CGAACCAC	0.106
AACCGATT	0.15

Sequence	PBM E-score
ATGTATCA	0.19
GCTGGACC	-0.121
GTAAATCA	0.207
AAAATGTT	0.065
GAGTAATC	0.00348
AGAATCAG	0.0672
GATAGCAC	-0.117
CAGGCATA	-0.314
TCCCACCA	-0.131
CGGAACAG	-0.194
GAAGCCGC	0.00935
GACTGCTC	-0.107
AAGTACGA	-0.00918
GGGACGGA	-0.275
CACACTAA	0.143
GACCGTGC	-0.107
CAGGAGCG	-0.101
CCGTCTCC	-0.136
AAGGGTGA	0.293
AGGCTGAA	0.0934
GTGAGCGA	0.1
AGAGACCC	0.078
ACTCGTAT	0.0878
CTGGGCTC	-0.152
ACTTAACT	0.0364

Sequence	PBM E-score
CTCGGGCC	-0.0822
CAATGGAC	0.0534
CCCAGACC	0.0212
CGAGTCCA	-0.204
GAGCGAAA	0.121
ACCACAAC	0.307
ATTTAGCG	0.0642
ACTGCATA	-0.0425
CCGCCCAG	0.06
GACTGCTA	-0.167
GGGGCAAA	-0.173
GCCGAAGA	-0.165
ACTGCAAC	0.0354
GCCTAGCA	-0.217
CATCTAAA	0.109
AAATGCCT	-0.173
GACATGTA	0.0707
AATATCCT	0.00302
CCGGTCAG	0.0589
